Experimental data published in the supplement of paper PMC10126150.
Values marked as one replicate rest on one cluster of the flow cell; about a third of the high ones do not repeat.

Tested on: ATP
Assay: switch fluorescence ratio, 500 uM ATP over buffer (Cy3 cluster intensity, sum of 5 cycles each) (fold (ratio)); higher = stronger signal-on switching upon ATP binding; sequences stand for … in TCGTCGGCAGCGTCAGATGTGTATAAGAGACAGTTTTTTTTTTTTTTTTTTTTTTTTT…TC
Conditions: aptamer strand: ATP DNA aptamer (quencher-CACCTGGGGGAGTATTGCGGAGGAAGG + anchor), 100 nM annealed; ATP concentration: 500 uM; one replicate
How it was run: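 Imaging in selection buffer was followed by imaging after 15 min with 500 uM ATP at 22 °C, for Cy3-labelled switching-strand clusters annealed to 100 nM quencher-labelled ATP aptamer on a modified Illumina MiSeq flow-cell. Five of these buffer/ATP cycles ran, separated by NaOH stripping and re-annealing. The fluorescence ratio per cluster is summed target-cycle over summed buffer-cycle Cy3 intensity, averaged per switch-domain sequence; clusters outside 100-1000 RFU were removed.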
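Note: ATP exposure 15 min at 22 °C before imaging.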

Row | Sequence | switch fluorescence ratio
1 | CTATATCCTG | 1.05
2 | TTTTTTTAC | 1.01
3 | AAAAATAAAA | 0.996
4 | TAATTACCAG | 1.01
5 | TGGCCCTTCG | 1.06
6 | TTTTCACTAA | 1.01
7 | AATGGCCT | 1.06
8 | GCCGTATCCA | 1.01
9 | ACACGCGTCC | 1.04
10 | TACGGAAACA | 1.17
11 | TACTGGGTCT | 0.979
12 | ACAAATGCTC | 1.06
13 | AGTCACGTCT | 1.04
14 | TGGCTTTTCG | 0.976
15 | AACTTTGAAG | 1.03
16 | TAGGGTGCCT | 0.972
17 | TACGAGTTGG | 1.05
18 | CTGGTGTCCG | 0.968
19 | CTGACACAGC | 2.09
20 | TAACGAGCAT | 1.11
21 | GGTGACGGAT | 0.977
22 | ACCGTAAGCC | 1.34
23 | TCTGAGCTGC | 0.915
24 | CTGATAGTTC | 0.961
25 | TACAATGGAG | 1.02
26 | TTTATCCGTG | 1.02

Row | Sequence | switch fluorescence ratio
27 | AGTTGTGGCC | 1.02
28 | GGTCACCCAC | 1.4
29 | CGACGGCGAC | 1.15
30 | CCTTGAGTTC | 1.02
31 | GGGGATCGT | 0.993
32 | ATGTAATATC | 1.07
33 | TTAAGGTGGT | 1.01
34 | ATACAAGTAA | 1.08
35 | TGCTGAAGG | 0.995
36 | TACCTTTCAG | 1.09
37 | GATGACTGCT | 0.988
38 | TTGTGCCGAG | 1.01
39 | GGGTCATTTT | 0.965
40 | GGTCCAGTAA | 1.03
41 | AACCATGTAA | 1
42 | GGACATTTGT | 0.976
43 | GGGATGTAGC | 1.05
44 | CTCTTATCGT | 0.996
45 | GAGTAGGTGG | 0.996
46 | AGCATCATGT | 1.03
47 | GAAGGGAGAT | 0.952
48 | TCAATTTGG | 1
49 | TTTCAAGAAC | 0.943
50 | AGAGGACGGC | 1.06
51 | GTGTGCTACC | 1.05
52 | AAGCACCTCG | 1.16

Row | Sequence | switch fluorescence ratio
53 | TCAAGTTTCC | 1.05
54 | GCTGGTGGTC | 1
55 | TTGGTAGTGA | 1.01
56 | AATCGGCAAA | 0.936
57 | GCGAGGATG | 1.01
58 | AGCGGGTGCA | 1.05
59 | TTCGAGCCTG | 1.03
60 | GGCTGTGTAT | 0.969
61 | TTCCTTACG | 2.54
62 | TATGGGTCGT | 1.01
63 | GAGTCCAACG | 1.04
64 | AGGCCACCTC | 1.03
65 | GGAGGCTCTG | 0.974
66 | ATGAGTAACT | 0.944
67 | GAGGAATTTG | 1.25
68 | CTCGGGGTAT | 1
69 | CATAGTTCAC | 1.03
70 | ATGAGTTTGG | 0.939
71 | CAAGGATCCT | 1.02
72 | CGGTGTGAGC | 1.05
73 | GGTGGTTAGT | 1.03
74 | TTGAACGAGG | 1
75 | ATATGTATCG | 1
76 | ACGCCTGCTG | 1.02
77 | AAAGGGAAGC | 0.959
78 | CAACTAGCC | 1.15

Row | Sequence | switch fluorescence ratio
79 | ATTGGGCACA | 1
80 | TTATAAGTT | 0.954
81 | GGCTCAGTT | 1.02
82 | AGTACCGTGT | 1.01
83 | AGACACGTTT | 0.972
84 | CTCTCATTTG | 0.972
85 | GGCGTTTGAG | 0.949
86 | CTTACTACAC | 1.33
87 | CGTCGGGCAT | 0.984
88 | AATGACACAT | 1.02
89 | ATGGGACGAC | 1.05
90 | AGTATCATG | 0.987
91 | AACGGGTGTG | 1.02
92 | GAAACTATGA | 1.09
93 | GCCTAAATTC | 0.98
94 | GCCGGTAGCA | 1.03
95 | GAGCTAACTC | 1.16
96 | TCCTAGTTTT | 1.01
97 | CCGTTTTACC | 1.45
98 | TGCTAACAAT | 1.02
99 | AATCTCAAAA | 1.01
100 | GTTTGGTCCT | 0.974
101 | CCCAGAATGC | 1.63
102 | AATATACTCA | 1.09
103 | GTCTCTGCAC | 1.51
104 | GATGTGGCTC | 1.02

Row | Sequence | switch fluorescence ratio
105 | GACACCGTTT | 0.931
106 | GACTAACAGT | 1.04
107 | CGTATTAGGC | 0.95
108 | CCTGCTAGA | 1.16
109 | TGCTATTGCG | 0.963
110 | AAGTCACATA | 1.08
111 | CGGACCCGGT | 1.09
112 | AGGGCATCAG | 1.02
113 | TTTTCGGCAT | 1.31
114 | GACAAACCAG | 1.09
115 | TTTATTTGTG | 1.03
116 | TTGCTCCCTC | 1.23
117 | GCAGGTCAGG | 1.07
118 | TTTTTGTTCA | 0.997
119 | AAGCTATGTA | 0.98
120 | GAAATAAGAA | 0.982
121 | GGGAAGCCCC | 1.1
122 | AGTTCCAGTC | 1.04
123 | CGGCCGGCTT | 0.993
124 | TTTGCTACTT | 1.07
125 | ATCTCTGGCG | 0.99
126 | ACTCGTAAG | 1.02
127 | TTAGTACGCC | 1.01
128 | GTTATAGGCA | 1.01
129 | GCCTGTAGTC | 0.999
130 | CAGGAGTTGC | 1.05

Row | Sequence | switch fluorescence ratio
131 | AGGAGGGAGC | 1.02
132 | CAATGTTAAG | 0.997
133 | CGTGACACTT | 1
134 | CAACGCTAC | 3.11
135 | CGAAGGCAAA | 2.16
136 | GCTAAACGAA | 1.02
137 | ATAAGTAGAT | 0.987
138 | ATGCCCCATT | 1.05
139 | AACCTCAGCT | 1.17
140 | TAAGTTCTCA | 1.04
141 | CTTTACCGTA | 1.13
142 | ACGGGGTC | 0.974
143 | TCTTAGCGTA | 0.987
144 | TACATCGAAC | 1.06
145 | TTCCGTACTT | 1.05
146 | TACTACTGTT | 1.06
147 | TTGGGGGAC | 1.18
148 | CCCAAAGCCT | 1.33
149 | AGTTGGATGG | 0.978
150 | AAGTACCAGG | 1.37
151 | CCTGCCAACT | 1.27
152 | TACGTGCGGA | 1.01
153 | TAACGAGTGC | 1.01
